# Patent publication US20150017170A1, “BIOMARKER FOR SELECTING A SUBJECT FOR APPLICATION OF AN ANTI-C-MET ANTIBODY” (Samsung Electronics Co., Ltd., priority 2013, published 2015)
# B1: huAbF46-H4-A1: affinity-matured humanized anti-c-Met antibody, L3-1 origin CDR-L3, U6-HC7 hinge (antibody)
# heavy: EVQLVESGGGLVQPGGSLRLSCAASGFTFTDYYMSWVRQAPGKGLEWLGFIRNKANGYTTEYSASVKGRFTISRDNSKNTLYLQMNSLRAEDTAVYYCARDNWFAYWGQGTLVTVSSASTKGPSVFPLAPSSKSTSGGTAALGCLVKDYFPEPVTVSWNSGALTSGVHTFPAVLQSSGLYSLSSVVTVPSSSLGTQTYICNVNHKPSNTKVDKKVEPKSCDCH[skipping human IgG1 Fc]
# light: DIQMTQSPSSLSASVGDRVTITCKSSQSLLASGNQNNYLAWHQQKPGKAPKMLIIWASTRVSGVPSRFSGSGSGTDFTLTISSLQPEDFATYYCQQSYSRPYTFGQGTKVEIKRTVAAPSVFIFPPSDEQLKSGTASVVCLLNNFYPREAKVQWKVDNALQSGNSQESVTEQDSKDSTYSLSSTLTLSKADYEKHKVYACEVTHQGLSSPVTKSFNRGEC
# What was measured:
# Settings in all cases: among huAbF46-H4-A1, -A2, -A3, -A5
# Akt = Akt phosphorylation by the four affinity-matured antibodies; type: cell-based
# c-Met [1] = biological target: T1, c-Met (Homo sapiens, UniProt P08581); experiment: Affinity for c-Met of the four affinity-matured antibodies; type: binding; parameters: endogenous in cells; host or cells: EBC1 cells (JCRB JCRB0820)
# c-Met [2] = biological target: T1, c-Met; experiment: c-Met degradation degree of the four affinity-matured antibodies; type: cell-based; parameters: endogenous in cells; host or cells: EBC1 cells (JCRB JCRB0820)
# T1 sequence (P08581 25-1390): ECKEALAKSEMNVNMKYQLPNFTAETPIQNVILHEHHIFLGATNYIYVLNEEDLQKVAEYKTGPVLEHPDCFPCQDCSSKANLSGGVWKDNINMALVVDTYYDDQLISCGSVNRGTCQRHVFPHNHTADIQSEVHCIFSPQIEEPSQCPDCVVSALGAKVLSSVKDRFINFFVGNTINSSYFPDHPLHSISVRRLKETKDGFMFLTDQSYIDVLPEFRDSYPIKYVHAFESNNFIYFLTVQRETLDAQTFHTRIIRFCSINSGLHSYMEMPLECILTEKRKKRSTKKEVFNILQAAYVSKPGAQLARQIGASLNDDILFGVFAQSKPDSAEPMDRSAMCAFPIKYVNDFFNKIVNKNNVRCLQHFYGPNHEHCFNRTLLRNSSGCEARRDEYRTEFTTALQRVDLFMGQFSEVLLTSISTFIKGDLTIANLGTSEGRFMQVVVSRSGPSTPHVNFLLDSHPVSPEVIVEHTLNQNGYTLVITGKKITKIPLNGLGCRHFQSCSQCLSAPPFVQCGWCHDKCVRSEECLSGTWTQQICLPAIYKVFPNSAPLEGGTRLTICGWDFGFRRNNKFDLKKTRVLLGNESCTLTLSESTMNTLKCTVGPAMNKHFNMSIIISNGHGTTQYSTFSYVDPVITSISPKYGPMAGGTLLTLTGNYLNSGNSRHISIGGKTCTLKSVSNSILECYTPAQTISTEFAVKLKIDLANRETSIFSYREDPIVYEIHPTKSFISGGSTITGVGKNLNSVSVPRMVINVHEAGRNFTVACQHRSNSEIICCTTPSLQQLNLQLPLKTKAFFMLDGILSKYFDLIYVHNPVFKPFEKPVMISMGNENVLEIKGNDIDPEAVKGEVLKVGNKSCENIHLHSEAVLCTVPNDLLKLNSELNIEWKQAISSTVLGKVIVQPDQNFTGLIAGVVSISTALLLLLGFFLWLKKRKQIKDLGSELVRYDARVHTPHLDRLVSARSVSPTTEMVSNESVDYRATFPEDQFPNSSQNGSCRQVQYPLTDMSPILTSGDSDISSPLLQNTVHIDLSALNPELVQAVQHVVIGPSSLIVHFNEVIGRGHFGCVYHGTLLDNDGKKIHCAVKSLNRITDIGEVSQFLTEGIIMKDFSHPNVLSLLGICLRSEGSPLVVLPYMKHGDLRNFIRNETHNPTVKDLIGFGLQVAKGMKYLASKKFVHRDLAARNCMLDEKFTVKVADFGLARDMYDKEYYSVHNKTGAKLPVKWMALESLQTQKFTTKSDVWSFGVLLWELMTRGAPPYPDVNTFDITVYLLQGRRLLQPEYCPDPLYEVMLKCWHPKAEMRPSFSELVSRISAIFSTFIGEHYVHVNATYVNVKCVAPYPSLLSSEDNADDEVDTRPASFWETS
molecule,measurement,setting,value
B1,Akt phosphorylation (rank among the four selected antibodies),Akt,lowest
same,affinity for c-Met (rank among the four selected antibodies),c-Met [1],highest
same,c-Met degradation degree (rank among the four selected antibodies),c-Met [2],lowest
